± gives the standard deviation of the averaged measurements. Over roughly 4,000 sequences, “arbitrary fluorescence units” has its median near 830; the highest 2% begin near 6,500. The list lacks most of the strong results.
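Note: Full-length recombinant human RUNX1 bound to double-stranded DNA microarray spots, detected with an Alexa488-labelled secondary antibody after the anti-RUNX1 primary, read as scanned spot fluorescence.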

In the assay the target is RUNX1 (UniProt Q01196). In words: RUNX1 binding intensity (PBM fluorescence), RUNX1 alone (arbitrary fluorescence units); higher = stronger binding. The settings on record: RUNX1 concentration 2 nM; ETS1 concentration 0 nM. The method, then: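 gcPBM on 36-bp genomic-derived probes (partner site mutated) containing one RUNX1 site and no ETS1 site. Recombinant human RUNX1 (2 nM) was incubated alone or with ETS1 (25 nM) and detected by anti-RUNX1 antibody fluorescence. Values are medians over 4 replicate spots (not normalised). The probes sit in constant array flanks that are not printed.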
Sequence of UniProt Q01196 (Q01196 whole entry): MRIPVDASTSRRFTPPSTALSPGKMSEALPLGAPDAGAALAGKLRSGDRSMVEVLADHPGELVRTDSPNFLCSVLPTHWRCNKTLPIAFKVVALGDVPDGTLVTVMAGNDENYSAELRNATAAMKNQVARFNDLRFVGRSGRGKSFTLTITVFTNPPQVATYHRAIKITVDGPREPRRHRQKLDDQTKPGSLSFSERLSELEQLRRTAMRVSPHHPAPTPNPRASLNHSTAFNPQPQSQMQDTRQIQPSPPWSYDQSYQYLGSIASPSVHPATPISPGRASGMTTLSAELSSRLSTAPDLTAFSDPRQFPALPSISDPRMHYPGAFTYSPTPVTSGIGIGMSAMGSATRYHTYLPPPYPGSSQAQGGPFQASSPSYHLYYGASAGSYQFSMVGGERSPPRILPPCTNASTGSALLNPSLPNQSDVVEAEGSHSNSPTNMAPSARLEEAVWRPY
The sequence TCCGTAAATAGATAATATCTAGTTAAACCTCAAAAT showed an RUNX1 binding intensity of 840.

As to GTGGCGGGGCGGAGGTTCACATGTGTGGTATGTAGA, the RUNX1 binding intensity turned out to be 841 ± 28. On to AGGCTTGTGGCTAGACCAGGGTCTTGCTGCTGAAGA, for which the RUNX1 binding intensity was found to be 708. Sequence TCGCTCTGATAACCGCATCCCGGTTTTCGGGACGAC came in with an RUNX1 binding intensity of 3400. TCCACAGCAAATCCCCTGGTCTGTGGCGCCTCTGAT displayed an RUNX1 binding intensity of 772. Then GCGGCGCTGCGGGCCGAGGTGGGGCCGGGAATGTCA, with 744; and CTGGGGACGAAGCCTGAGGTGTGTGGTTTTGTTAAC, with 904.

The sequence TGGTAACCCCGCAGCTCCAGCGTCGCGCTTACGGGC displayed an RUNX1 binding intensity of 716. With GACAGCAAGTGACCTCAATTTCCCCGGCCACAGAAA, the RUNX1 binding intensity was found to be 834. Then CCTTAACGTTAAAACCTCAAGCTTCCAGAGCATGTC, with 935. Then GTCCCCCTTACGGCTGCAGGTTGAGGTTTGGAACCT, with 706; and CCTGCTCTGGGGCGGTTAGCAACTTGCTGCCCTGGC, with 757.

AACCTCTAAGGAATCGGTGTGTGCACCCACATGCTG registered an RUNX1 binding intensity of 757. Turning to ACGCAAACCACACCAGCCACGGACAGGCAGCAAGAG, the RUNX1 binding intensity was 1200.

ACATGGTCTCGCTTGCTGTTTACACCACAGAAAGCT: the RUNX1 binding intensity was found to be 895.

Regarding CTGCGGTAAAAATAGGCAGTGGGGGAGGGAGTTCAC, the RUNX1 binding intensity amounted to 856.

Sequence CGAAAAACCTCAGGGGAGCCATGGGGGCAGCAAGGG had an RUNX1 binding intensity of 792. As to TGGGCAAGATCTCCTGGAAGTGGTTAAAAAAAATTA, the RUNX1 binding intensity worked out at 787. Then CTCCGCGCAGCCGCAGAGACCCTTGGGAATTGTGGA, with 725; and GCACTCGGCTGTTGGCCGTAGTTGTGGTTATAGTTG, with 921; and TTGCTGTCATCGTGTTCTCCCAGCTAAGCCACAGGA, with 803.

Sequence CCACTGCTTCGGCCTTCTCTGCTGGCTGCGGGGAGC displayed an RUNX1 binding intensity of 850. Then TATCTCCTCCTGCAGGTCTGTTCTTTACCGCCTGAA, with 949.

For GGCCGAGGACCGCAGAGCCCCGTAAGCCTAGCCCCA, the RUNX1 binding intensity turned out to be 1050.

ACGTTTCGGGGTTGCCGGGCCAGCGGTTTCGGGCGC: the RUNX1 binding intensity is 836.

GACAGCCGCATCTGCTGAGTCATAAGGAGGTGGGCC returned an RUNX1 binding intensity of 733. Consider TGTCGTACATCTCCGCCTTGTGGGCACAATCTGATT, for which the RUNX1 binding intensity worked out at 834. Then GCCAACCACAACATGAGGAATACATGTCCTCTTCAG, with 1800; and GGACGCTTCAGGTGGAAGGGAGCTGTTGCGGGGCTT, with 661. Regarding TGTCATCCCGGCAACTGATAACAAGACCGCGAGTCA, the RUNX1 binding intensity was 827.

On to GGCCCGGCCGTAAGAAGCCACCTCCCCCGCACGCGT, for which the RUNX1 binding intensity was 796. For the sequence TGTAGTCAGGTGGTTAGGCAGGTTGTTTCTCACGGC, the RUNX1 binding intensity is 819. Then CTCCGTGCCACCACAGCCACTTGCTGCCTTGAAAAC, with 1170; and TAGACCAGTGTGGTCAGCCGCCCCTGCCTAAGCTGC, with 987; and CAGCCAGCCAGGGAGCAGGGGCTGCGGGGCTGACAG, with 737. On to CAGAGCAGAGAGGAGGTGGTGGTGGCCACAGTCCCA, for which the RUNX1 binding intensity was found to be 735. Then CACCTCCTATCGCTACATAACAAATTACCACAGACT, with 2240; and TGCCAAGAGTTCCCCGCGGACCCCGCAACAGCTCCA, with 890; and ATGACTTAGCAACCTCCTGACAACCACTACATTGTC, with 932. In the case of TCCAGCGCCGCAGGGCCAACGAGAGCGCTTCAGGCC, the RUNX1 binding intensity was 624. Then GTCGTCAGCGTCGTCCTGTCAGCGGTCGGCAGAGCC, with 807. The sequence ACCTGAGCAGGCAGTAGCTGAGGTCGCGGTGCAGCA showed an RUNX1 binding intensity of 624.

Sequence TAGCCTTGTGTGGGAAGCAAATCGTGTCTCAGAGGG displayed an RUNX1 binding intensity of 753 ± 76.

For CGCCGCGGTAGCAGGGCGCAGGCTGGAACCTTTCTT, the RUNX1 binding intensity was determined as 724. Then GTTGGTCTCCTCTAGACTCTCGTGGCCACACCGTTC, with 872; and GCACAGCGGTCTATTTCACCTCAGCAAGATTCCCCC, with 874; and ACCTGAAGGGCGGGGGCGTGGCGAGGTACCGCAGAC, with 1140. In turn, GCGGAGCCCGACGGTAAAGACCCCGCAGCCCTGCTC yielded an RUNX1 binding intensity of 779.

CACCTTTGTTGTGGTTTGTAAACGGAGACAAAAACA returned an RUNX1 binding intensity of 1460. With AAACTTGCGGTGGAGGAGAGCTGAGCACTGCCTATG, the RUNX1 binding intensity turned out to be 1260. Sequence AAGTGGTTGCATATAGGGCGAATCGGCTCCCTGCTA gave an RUNX1 binding intensity of 748. With ATGGCGCCGACCGCAGCCACTTGCGTGATCCGCAGG, the RUNX1 binding intensity turned out to be 3730. Regarding TCCTCCGGGTGCCCAGCGGCTGCTGAGATACCGCGG, the RUNX1 binding intensity was determined as 724.

As to CCCAGGGCATGAAGGGCCAAACCGCTACTGCCACTG, the RUNX1 binding intensity stood at 780. Consider AGGGAGGTAGTGCGGTAGAATTTTCAGCTATGGGTC, for which the RUNX1 binding intensity was 848.

GTAGGGCTGGACGGCAGGCTCCGGGATACCGCCACG came in with an RUNX1 binding intensity of 694. Then CCGGCAGCAAGTTAGCATGGGCGGACCACACGGGGG, with 725; and CTGAGGGTGGTTTGGGTGCAGCTCCCTGAAAGGAGA, with 761; and ACCAGCAACGGAGATCAGATCTCTTGTGGTTATTAT, with 875.

As to TGCCACCTGCTTGCTGCCTGTGTAGCCACAAGGGAC, the RUNX1 binding intensity was 682.

For the sequence TCCAGGCATCTCCCCCATGTTGGCTCACCGCACTAT, the RUNX1 binding intensity turned out to be 1170. Then ATGAATGGGATCTGGCAGCCCAGCCCTGTGGTGGAG, with 692; and TGGGGCTCTTGCTGCTTATGTGACCACAGCACCTTG, with 705.

The values above are taken from the supplement of paper PMC10681739.
